# Measured values reported in PubChem BioAssay (NCATS).
# Some of the results follow. The main result of the screen is listed elsewhere. These columns were measured beside it and carry no call. Compounds called inactive in the main read-out are mostly missing here.
# Experiment: qHTS Assay for Lipid Storage Modulators (AID 1519)
# Settings: Drosophila S3 cells, BODIPY lipid droplet/cell ratio, laser cytometry, cells loaded with oleic acid
# In short: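 Cells seeded at 5,000 per well were treated with compounds over a concentration series and loaded with oleic acid (400 uM, as added). Lipid droplet fluorescence (488 nm excitation, 500-530 nm channel) was read by laser-scanning cytometry and normalized to 20 uM Triacsin C.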
# [1] = measured here: cell count channel max response
# [2] = measured here: lipid channel max response
SMILES,max response [1],max response [2]
CCN(CC)CCNC(=O)c1cc(Cl)c(N)cc1OC,41.6%,44.6%
COc1ccc2c(c1)CCC1C2CC[C@@]2(C)C1CC[C@@H]2NCCCCCCN1C(=O)C=CC1=O (stereo partly drawn),55%,52.2%
CC(=O)N1CCC2(CCCN(c3cccc(-c4ccccc4)c3)C2)CC1,-1.99%,-40.1%
CC(=O)[C@H]1CCC2C3CC=C4C[C@@H](OS(=O)(=O)O)CC[C@]4(C)C3CC[C@@]21C (stereo partly drawn),-5.01%,-1.88%
CN1CCN(c2ncc3nc(-c4cccs4)c(=O)n(Cc4ccc(F)cc4)c3n2)CC1,28.2%,-14.9%
C[C@H]1CC2[C@@H]3CCC4=CC(=O)C=C[C@]4(C)[C@@]3(Cl)[C@@H](O)C[C@]2(C)[C@@]1(O)C(=O)CO (stereo partly drawn),24.2%,17.2%
O=C(O)/C=C/c1cnc[nH]1,41.1%,34.6%
CCc1cc2c(c(CC)n1)CCC(=O)N2Cc1ccc(-c2ccccc2-c2nn[nH]n2)cc1,93.5%,119%
COc1ccc2[nH]cc(CCNc3ccnc(-c4ccc(N(C)C)cc4)n3)c2c1,-48.8%,-92.4%
NC(=S)NCCCC(N)C(=O)O (stereo not drawn),34.8%,30.6%
CC(=O)SCC[N+](C)(C)C,57.7%,58%
O=C1c2ccccc2CC[C@H]1CNCCc1ccc(O)cc1,-0.333%,-92%
CNc1ncnc2c1ncn2[C@H]1C[C@H](OP(=O)(O)O)[C@@H](COP(=O)(O)O)O1,50.1%,49%
COc1ccc(/C=C/C(=O)c2cccs2)c(OC)c1,59%,44.4%
CCC(C(=O)C(C)C(O)C(C)CCc1ccc(C)c(O)c1C(=O)O)C1OC(CC)(C2CC[C@@](O)(CC)C(C)O2)CC1C (stereo partly drawn),-22%,-80.1%
CC(C)NC[C@H](O)COc1cccc2[nH]ccc12,69.9%,73.1%
CC(N)=NCCCC(N)C(=O)O (stereo not drawn),39.4%,42.2%
CC(=O)OCC(=O)[C@@]1(O)CC[C@H]2[C@@H]3CCC4=CC(=O)CC[C@]4(C)[C@H]3C(=O)C[C@@]21C,40.1%,37.7%
C#CC(N)CCC(=O)O (stereo not drawn),48.8%,48.5%
COc1ccc(/C=C/C(=O)c2ccc(C)s2)cc1,89.1%,113%
O=C(c1ccccc1)[C@@H]1O[C@H]1c1ccc(-c2ccccc2)cc1,68.8%,98%
COc1cc2c(Cc3c4c5c(cc(OC)c(OC)c5c5c(OC)c(OC)ccc35)CCN4C)c3c4c(cc(OC)c(OC)c4c2cc1OC)CCN3C,-79.7%,-91.3%
Nc1cc(Cl)c(NC2=NCCN2)c(Cl)c1,43.2%,42.9%
CCCCS(=N)(=O)CCC(N)C(=O)O (stereo not drawn),29.6%,24.5%
CCn1c(=O)[nH]c2ccccc21,30.7%,38.4%
CCCCCCCCCC[Si](C)(C)CCC(=O)NC(Cc1ccc(C)cc1)c1ccccc1 (stereo not drawn),37.5%,38.5%
O=c1c(-c2ccc(F)c(F)c2)nc2cncnc2n1Cc1ccc(F)cc1,-0.714%,-32.7%
COc1cccc(-c2ccc3ncnc(NC4CC4)c3c2)c1,-19.7%,-34.4%
NC/C=C/C(=O)O,49.3%,53.2%
